Common to all, as to test: Primary Screen for Target Class Profiling of Small Molecule Inhibitors of Methyltransferases
The target in assay [1] is Glycine N-methyltransferase (Homo sapiens) (UniProt Q14749). Conditions: purified enzyme, MTase-Glo SAH luminescence; measured here: GNMT inhibition; at 40 µM; stronger effect = lower value. In outline:
(§1)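 Each enzyme was assayed with SAM and its substrate. SAH formation detected by MTase-Glo luminescence; single-point 40 uM screen[…].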

The target of assay [2] is Guanidinoacetate N-methyltransferase (Homo sapiens) (UniProt Q14353). The following applies: purified enzyme, MTase-Glo SAH luminescence; measured here: GAMT inhibition; at 40 µM; stronger effect = lower value. In outline: as §1
Assay [3] concerns the target Histamine N-methyltransferase (Homo sapiens) (UniProt P50135). Conditions: purified enzyme, MTase-Glo SAH luminescence; measured here: HNMT inhibition; at 40 µM; stronger effect = lower value. In outline:
as §1

For assay [4], the target named is Nicotinamide N-methyltransferase (Homo sapiens) (UniProt P40261). The following applies: purified enzyme, MTase-Glo SAH luminescence; measured here: NNMT inhibition; at 40 µM; stronger effect = lower value. In outline:
as §1

Assay [5] deals with Phenylethanolamine N-methyltransferase (Homo sapiens) (UniProt P11086). The following applies: purified enzyme, MTase-Glo SAH luminescence; measured here: PNMT inhibition; at 40 µM; stronger effect = lower value. In outline:
as §1

Some of the results follow. Shown are side measurements of this screen, not its main read-out; they come without a call.
% is set by controls: 0 for no effect and ±100 for the full control effect.

Turning to `COc1cccc(CN2C(=O)c3cc4occc4n3CC2(C)C(=O)NC2CCCCCC2)c1` (stereo not drawn), the activity change, negative = inhibition in assay [1] is -8.64%; in assay [2] it was 0.706%; in assay [3], -4.53%; in assay [4], -18.6%; in assay [5] it was -4.41%.

As to `CCCn1c(=O)c2ccc(C(=O)NC3CCCCC3)cc2n2c(=O)n(CC(=O)c3cccc(OC)c3)nc12`, the activity change, negative = inhibition is 2.45% in assay [1]; 4.07% in assay [2]; -1.69% in assay [3]; 1.21% in assay [4]; 2.42% in assay [5].

For `C#CCn1c(=O)c2c(ncn2C)n(C)c1=O`, the activity change, negative = inhibition was 2.63% in assay [1]; 14.5% in assay [2]; 10.7% in assay [3]; -1.61% in assay [4]; 6.39% in assay [5].

As to `COc1ccccc1N1C(=O)CSc2c(c3ccccc3n2C)C1C(=O)NCc1ccccc1` (stereo not drawn), the activity change, negative = inhibition is -2.77% in assay [1]; 4.19% in assay [2]; 2.39% in assay [3]; -2.27% in assay [4]; -2.91% in assay [5].

On to `CC(CCC1(O)OC2CC3C4CCC5CC(O[C@@H]6O[C@H](CO)[C@@H](O)[C@H](O)[C@H]6O[C@@H]6OC[C@@H](O)[C@H](O)[C@H]6O)C(O)CC5(C)C4CCC3(C)C2C1C)CO[C@@H]1O[C@H](CO)[C@@H](O)[C@H](O)[C@H]1O` (stereo partly drawn), for which the activity change, negative = inhibition in assay [1] was -0.59%; in assay [2], 0.547%; in assay [3], 9.39%; in assay [4], -11.1%; in assay [5], 3.94%.

For `Fc1ccc(-c2c3cccc(C(F)(F)F)c3nn2Cc2ccc(F)cc2Cl)cc1`, the activity change, negative = inhibition in assay [1] is 3.11%; in assay [2] it was -7.67%; in assay [3], 11.4%; in assay [4] it was -17.7%; in assay [5] it was 1.19%.

Consider `CCOc1cc2c(c(F)c1OCC)C(=N)N(CC(=O)c1cc(N3CCOCC3)c(OC)c(C(C)(C)C)c1)C2`, for which the activity change, negative = inhibition is -4.68% in assay [1]; 0.822% in assay [2]; -17.8% in assay [3]; -45.5% in assay [4]; -15.6% in assay [5].

As for `OC[C@@H]1O[C@H](CNC2CCOCC2)[C@H](N2CCCC2)[C@@H]1O`, the activity change, negative = inhibition in assay [1] is -2.2%; in assay [2], -5.56%; in assay [3], -1.18%; in assay [4], -8.5%; in assay [5], -5.08%.

With `CCNC(=O)[C@@H]1C[C@H](NC(=O)c2ccc[nH]2)CN1C(=O)Cc1cc(C)no1`, the activity change, negative = inhibition in assay [1] is -2.96%; in assay [2], 2.08%; in assay [3] it was -0.062%; in assay [4], -1.54%; in assay [5], -3.03%.

As to `C[C@@H]1O[C@@H](OC[C@H]2O[C@@H](Oc3cc(O)cc4c3C(=O)C(O)(Cc3ccc(O)cc3)O4)[C@H](O)[C@@H](O)[C@@H]2O)[C@H](O)[C@H](O)[C@H]1O` (stereo partly drawn), the activity change, negative = inhibition is -9.27% in assay [1]; 1.02% in assay [2]; -3.98% in assay [3]; -9.61% in assay [4]; 1.45% in assay [5].

As for `O=C(c1ccc(F)cc1)C1CCN(CCn2c(=O)nc3n(c2=O)CCCC3)CC1`, the activity change, negative = inhibition in assay [1] was 2.1%; in assay [2], -0.987%; in assay [3], 2.75%; in assay [4], -12.7%; in assay [5] it was -1.54%.

Regarding `CC1(C)CC[C@]2(C(=O)O)CC[C@]3(C)C(=CCC4[C@@]5(C)CC[C@H](O[C@@H]6O[C@H](C(=O)O)[C@@H](O[C@@H]7OC[C@@H](O)[C@H](O)[C@H]7O)[C@H](O)[C@H]6O)C(C)(C)C5CC[C@]43C)C2C1O` (stereo partly drawn), the activity change, negative = inhibition in assay [1] was 1.02%; in assay [2] it was -1.01%; in assay [3], 6.62%; in assay [4], -13.4%; in assay [5] it was -7.54%.

For `CCN(CC)c1nc2c(-c3cccc(Br)c3)nnn2c2ccccc12`, the activity change, negative = inhibition is -4.66% in assay [1]; -0.04% in assay [2]; -3.2% in assay [3]; -4.93% in assay [4]; -9.94% in assay [5].

As for `CCCn1c(=O)c2ccccc2n2c(SCC(=O)Nc3cccc(Cl)c3)nnc12`, the activity change, negative = inhibition in assay [1] is -1.84%; in assay [2], 1.04%; in assay [3], 10.1%; in assay [4], -4.92%; in assay [5], 3.93%.

With `Cn1cc(-c2ccc3c(c2)CCN3C(=O)Cc2cccc(C(F)(F)F)c2)c2c(N)ncnc21`, the activity change, negative = inhibition in assay [1] was -2.06%; in assay [2], 13.6%; in assay [3] it was 9.81%; in assay [4], -15.4%; in assay [5], -4.79%.

For `CCCCc1ncc(-c2c(-c3ccccc3)ncn2CCCn2ccnc2)[nH]1`, the activity change, negative = inhibition in assay [1] was -14.7%; in assay [2], -14.4%; in assay [3], -4.53%; in assay [4], -17.9%; in assay [5], -11%.

On to `COCC(=O)N[C@@H]1CN(C2CCOCC2)CC[C@@H]1CO`, for which the activity change, negative = inhibition in assay [1] was -1.76%; in assay [2], -0.994%; in assay [3] it was -1.65%; in assay [4], -1.76%; in assay [5] it was -2.79%.

On to `CC(Cc1cc2c(c(C(N)=O)c1)N(CCCO)CC2)NCCOc1ccccc1OCC(F)(F)F` (stereo not drawn), for which the activity change, negative = inhibition was 8.86% in assay [1]; 5.7% in assay [2]; 3.21% in assay [3]; -10.7% in assay [4]; -5.38% in assay [5].

For the molecule `O=C(Cn1nc2n(CCc3ccccc3)c(=O)c3ccccc3n2c1=O)NC1CCCCC1`, the activity change, negative = inhibition in assay [1] is 3.06%; in assay [2], 4.59%; in assay [3], 3.15%; in assay [4] it was 3.08%; in assay [5], 0.793%.

With `CC(C)OCCCn1c(=O)c2ccccc2n2c(=O)n(CC(=O)Nc3ccccc3F)nc12`, the activity change, negative = inhibition worked out at 0.959% in assay [1]; 0.316% in assay [2]; 6.2% in assay [3]; 5.87% in assay [4]; 3.14% in assay [5].

`Cc1cc(C(=O)Nc2cccc(C(=O)Nc3cccc(C(F)(F)F)c3)c2)on1`: the activity change, negative = inhibition is 3.55% in assay [1]; -18.5% in assay [2]; 2.88% in assay [3]; -20.4% in assay [4]; -7.95% in assay [5].

On to `Fc1ccc(CNc2nc3c(-c4ccccc4)nnn3c3ccccc23)cc1`, for which the activity change, negative = inhibition in assay [1] is -2.51%; in assay [2], 0%; in assay [3] it was 1.57%; in assay [4], -2.73%; in assay [5], -4.13%.

Consider `Cc1cc(SCc2sc(-c3ccc(C(F)(F)F)cc3)nc2C)ccc1OCC(=O)O`, for which the activity change, negative = inhibition is -35.3% in assay [1]; -3.5% in assay [2]; 3.51% in assay [3]; -29.2% in assay [4]; 1.57% in assay [5].

Consider `Cc1cccc(NC(=O)Cn2c(=O)oc3cc(S(=O)(=O)N4CCCCC4)ccc32)c1C`, for which the activity change, negative = inhibition is -8.77% in assay [1]; 3.7% in assay [2]; -1.94% in assay [3]; -14.6% in assay [4]; -11.6% in assay [5].

For the molecule `CCCN1C(=O)c2c(C(=O)NCc3ccc(OCC)c(OC)c3)ncn2CC1(C)C(=O)NC1CCCC1` (stereo not drawn), the activity change, negative = inhibition is 2.05% in assay [1]; 0% in assay [2]; -0.353% in assay [3]; 2.95% in assay [4]; 7.34% in assay [5].

In the case of `CC(NC(=O)c1ccco1)c1nc(-c2ccc(S(=O)(=O)N3CCCC3)cc2)no1` (stereo not drawn), the activity change, negative = inhibition in assay [1] was -1.39%; in assay [2] it was 5.03%; in assay [3] it was 1.94%; in assay [4], -0.194%; in assay [5], 3.15%.

Regarding `CCC[C@@]1(CCc2ccccc2)CC(O)=C([C@H](CC)c2cccc(NS(=O)(=O)c3ccc(C(F)(F)F)cn3)c2)C(=O)O1`, the activity change, negative = inhibition in assay [1] was -8.18%; in assay [2], -7.6%; in assay [3] it was 7.54%; in assay [4], -45.1%; in assay [5] it was -19.4%.

As for `COC(=O)C[C@@H]1C(C(=O)O)=CO[C@@H](O[C@@H]2O[C@H](CO)[C@@H](O)[C@H](O)[C@H]2O)/C1=C\COC(=O)/C=C/c1ccc(O)c(OC)c1`, the activity change, negative = inhibition in assay [1] is 3.41%; in assay [2], 8.03%; in assay [3] it was 5.97%; in assay [4] it was -3.76%; in assay [5], 7.4%.

As to `CN1CC[C@H]2CN(S(=O)(=O)c3ccc(NC(N)=O)cc3)C[C@H]21`, the activity change, negative = inhibition in assay [1] was -8.11%; in assay [2], -10%; in assay [3], -9.38%; in assay [4] it was -8.78%; in assay [5] it was -1.78%.

For `CC(C)Cn1c(=O)c2ccccc2n2c(=O)n(Cc3ccc(Cl)cc3)nc12`, the activity change, negative = inhibition in assay [1] was 2.6%; in assay [2], 0.145%; in assay [3], 7.15%; in assay [4], -6.75%; in assay [5], 4.13%.

With `CC1CCCN1c1ccc(C(=O)N2CCC(Oc3cccnc3)CC2)cn1` (stereo not drawn), the activity change, negative = inhibition in assay [1] was -25.6%; in assay [2], -7.36%; in assay [3] it was -8.37%; in assay [4], -13.4%; in assay [5] it was -19.9%.

`COC(=O)N(C)Cc1cccc(N2CCN(C(c3ccccc3)c3ccccc3)CC2)c1`: the values for the activity change, negative = inhibition in assay [2], in assay [4] and in assay [5] were -10.1%, -16.8% and 0.377%, respectively.

As to `CCN1CCN(C(=O)C2Cn3cccc3C(=O)N2C)CC1` (stereo not drawn), the activity change, negative = inhibition in assay [1] is -3.34%; in assay [2], -7.91%; in assay [3], -4%; in assay [4] it was -7.48%; in assay [5], -5.39%.

For `Cc1noc(C)c1-c1ccc2c(n1)CN(CCOc1ccccc1)C(=O)CO2`, the activity change, negative = inhibition in assay [1] is -8.89%; in assay [2], -8.14%; in assay [3], -6.74%; in assay [4], -20.2%; in assay [5], -9.29%.

Regarding `Nc1ncnc2c1nc(Sc1ccc(Cl)cc1)n2[C@H]1OC2COP(=O)(O)O[C@@H]2C1O` (stereo partly drawn), the activity change, negative = inhibition in assay [1] is 4.79%; in assay [2] it was 8.16%; in assay [3], 7.31%; in assay [4], -5.31%; in assay [5], -0.213%.
